# Literature values, collected in publication PMC11006913.
# Residue numbers refer to the chain shown, from its start. This is one part of the list.
# Tests used:
# Details in all cases: PBM; conditions not shown; double strand, one strand shown; scale: upbm affinity estimate (log intensity, higher = more binding, comparable within an allelic series)
# [1] = target: T1, HESX1 E149K (Homo sapiens) (UniProt Q9UBX0)
# T1 sequence: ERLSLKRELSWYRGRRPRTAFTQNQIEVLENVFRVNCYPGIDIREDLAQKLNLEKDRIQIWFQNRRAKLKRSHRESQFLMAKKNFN
# [2] = target: T2, HESX1 N125S (Homo sapiens) (UniProt Q9UBX0)
# T2 sequence: T1 sequence with N31S, K55E
# [3] = target: T3, HESX1 R160C (Homo sapiens) (UniProt Q9UBX0)
# T3 sequence: T1 sequence with K55E, R66C
# ISX (Homo sapiens) = ISX (Homo sapiens) (UniProt Q2M1V0)
# ISX R83Q (Homo sapiens) = ISX R83Q (Homo sapiens) (UniProt Q2M1V0)
# [4] = target: PROP1 R112Q (Homo sapiens) (UniProt O75360)
# [5] = target: PROP1 R99Q (Homo sapiens) (UniProt O75360)
# [6] = target: HOXD13 I297V (Homo sapiens) (UniProt P35453)
# [7] = target: HOXD13 I322L (Homo sapiens) (UniProt P35453)
# [8] = target: HOXD13 N298S (Homo sapiens) (UniProt P35453)
# [9] = target: HOXD13 Q325K (Homo sapiens) (UniProt P35453)
# [10] = target: HOXD13 Q325R (Homo sapiens) (UniProt P35453)
# [11] = target: HOXD13 R306W (Homo sapiens) (UniProt P35453)
# [12] = target: HOXD13 S316C (Homo sapiens) (UniProt P35453)
sequence,measurement,setting,value
CACAATTA [8-mer CACAATTA],binding signal,[1],11.3
same,binding signal,[2],11
same,binding signal,[3],10.3
same,binding signal,ISX (Homo sapiens),14.6
same,binding signal,ISX R83Q (Homo sapiens),12.8
AATTATTG [8-mer AATTATTG],binding signal,[2],11.2
CAGCGCAG [8-mer CAGCGCAG],binding signal,[1],9.87
same,binding signal,[2],7.37
same,binding signal,[3],9.89
same,binding signal,[4],10.9
same,binding signal,[5],10.9
CCAGCTGC [8-mer CCAGCTGC],binding signal,[6],9.56
same,binding signal,[7],9.46
same,binding signal,[8],9.52
same,binding signal,[9],9.54
same,binding signal,[10],9.46
same,binding signal,[11],9.43
same,binding signal,[12],9.58
AGGCGCTC [8-mer AGGCGCTC],binding signal,[6],9.39
same,binding signal,[7],9.56
same,binding signal,[8],9.26
same,binding signal,[9],9.33
same,binding signal,[10],9.33
same,binding signal,[11],9.36
same,binding signal,[12],9.4
CGGGAGCC [8-mer CGGGAGCC],binding signal,[6],9.57
same,binding signal,[7],9.47
same,binding signal,[8],9.48
same,binding signal,[9],9.4
same,binding signal,[10],9.35
same,binding signal,[11],9.38
same,binding signal,[12],9.51
TTATTAAA [8-mer TTATTAAA],binding signal,[6],12.5
same,binding signal,[7],11.8
same,binding signal,[8],12.8
same,binding signal,[9],11.9
same,binding signal,[10],12.2
same,binding signal,[11],12
same,binding signal,[12],12.4
CGCCGAAG [8-mer CGCCGAAG],binding signal,[6],9.44
same,binding signal,[7],9.33
same,binding signal,[8],9.2
same,binding signal,[9],9.49
same,binding signal,[10],9.28
same,binding signal,[11],9.46
same,binding signal,[12],9.38
ATTAGGCG [8-mer ATTAGGCG],binding signal,[3],10.2
